Reference: the supplement of paper PMC11417369
± gives the standard deviation of the averaged measurements. The list shows a part of the results.

What follows are sequences tested on PfAP2-I AP2 domain 3 (GST-tagged) (assay: gcPBM binding intensity (ln(normalized median fluorescence intensity)); higher = stronger DNA binding).
Procedure, shortened: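 For binding intensity, the highest Masliner-normalised natural-log median intensity across replicate spots of either probe orientation was taken. Protein bound to the array was stained with Alexa488 anti-GST antibody and scanned at 488 nm. The protein, GST-tagged P. falciparum DNA-binding domains from E. coli at about 25 μg on average, had been applied for 1 h to an Agilent 4 × 180k array of primer-extended double-stranded 36-bp intergenic genomic probes and negative controls.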

Sequence	gcPBM binding intensity (ln)
AACCATGTTAACAACGCATGTATATCTATGGGTTTA [TGCATGCA_site419]	7.57 ± 0.83
GATTAATACACATTCTTCCGACATAATAAGAAAAAG [GTGCAC_negctrl_site7]	8.04 ± 0.38
TTTTTTAAATGTCATTGTACATAATTCAATATATAA [XGTACX_site5]	7.92 ± 0.13
TGACTTTTTTTATGTTGTACTTATTATAAAAAAAAT [XGTACX_site7736]	8.05 ± 0.11
AGCTAATATATCTTATATTCATATAAAAAAATATAT [CACACA_negctrl_site1786]	7.42 ± 0.49
ATTATAATAATGTGATGTACATTAATTGTCTTCCTA [XGTACX_site5404]	7.72 ± 0.52
AATACATCATTAAAATGTACATATATATATACATTA [XGTACX_site132]	7.64 ± 0.44
GAAATAAGGGTTATTTCACACATTGCATGTATTTTC [CACACA_site5752]	7.59 ± 0.91
ATATATATTAATTTTGTGCACAAATGGAAATGTTTG [GTGCAC_site9971]	11 ± 0.2
TTTTTTTTTTTTTTATGTACTAAAAAATGAAAAATA [XGTACX_site6812]	7.98 ± 0.47
AAATACTTAACATTGGTGCATATTTGTAAAATTATT [GTGCAC_site9515]	10.3 ± 0.55
TTATTTATTTATTGGGTGCACTTGATTTAAATATGC	10.7 ± 0.64
AAAAAAAAAAAAAAAACACACACATATATATAATAT [CACACA_site9038]	8.62 ± 0.51
TTTTGGCTTCTAATATTATACAAAATGGTAAGGAAA [TGCATGCA_negctrl_site169]	7.94 ± 0.4
ATGCAATAATAATATTGTACGCATATATTTTTTACT [XGTACX_site3384]	8.04 ± 0.11
AGAATACAAAATTGCACACATATTGTGAAAATGTTA [CACACA_site4005]	8.42 ± 0.17
TATTCCTATATAAAGACACACATATGTAACTACGAT [CACACA_site4139]	7.68 ± 0.59
TGTGTTATATATAAAGAAAAAAAAAAAAAATATATA [CACACA_negctrl_site567]	7.62 ± 0.64
AAAAATTTAATTATTTGTACATAAAATACATTTCTG [XGTACX_site791]	7.46 ± 0.42

Sequence	gcPBM binding intensity (ln)
TGTACAAATTATACTTCGAACGAAGGGCATACATAT [XGTACX_negctrl_site37]	8.1 ± 0.54
TATTTGTGTATTTTTACACACATTAATATATTTATA [CACACA_site7562]	7.44 ± 0.42
TATATATATATTATATGTACACATTTGTGAATTATT [XGTACX_site5848]	8.98 ± 0.014
TATAGATAACAAAAGTGTACATGTTGTATACACATG [XGTACX_site3471]	7.76 ± 0.51
TATATATATAAACACACACACACACCCAAGCGTAGC [CACACA_site4210]	8.73 ± 0.34
AACAACTATTACTGCACACATTCTTACACTATATAA [CACACA_site654]	10.5 ± 0.45
TTTTTATTAAGACATGCATGGAAACGCACTATTTTA [TGCATGCA_site999]	9.615 ± 0.007
AATAAATAAATATATACACACATATATGTCTACATA [CACACA_site3158]	7.7 ± 0.43
TTTATATCATTTCTTAAAAAAAAGGAGGTAATAGAC [TGCATGCA_negctrl_site555]	8.81 ± 0.38
ATACGAAGTACGTACACACACTTATATGTTACTAAA [CACACA_site7812]	8.26 ± 0.23
TATATATGCATTAAATGATGTTCCTGTTTTTTAAAA [CACACA_negctrl_site1378]	8.15 ± 0.45
TTGCATTACGAACATACACACAGAATAACTGAAAAC [CACACA_site3025]	8.23 ± 0.69
TTCGATGAATATACAAGTACATATCCTTACGAACTG [XGTACX_site1650]	7.6 ± 0.42
TTAGTTTATTGGTACTGTACTTTTTTTTTCTCCATT [XGTACX_site8618]	8.02 ± 0.33
TTATTTAAAATTTTTATGCGTATATATATAGGAACA [CACACA_negctrl_site388]	8.05 ± 0.33
TATCATATATGAAGGTGTACGATTTATTATATAAAT [XGTACX_site7010]	7.87 ± 0.54
ATTTTTGAACGGTACAGTACAGAATTTAATTAACCC [XGTACX_site47]	7.99 ± 0.47
CACAAAATAAATTAAACACACAACATCATAGATGTA [CACACA_site4619]	7.21 ± 0.54
AATTTTTATTTGTACACACATACATATATATTATAT [CACACA_site993]	8.26 ± 0.45

Sequence	gcPBM binding intensity (ln)
ATATAATCAGCTTCTCTTTTATGCTAAAAAAAAAAA [CACACA_negctrl_site1310]	7.78 ± 0.59
ATAAATAATATAAATACACACTAAAAAAAATATATA [CACACA_site4456]	7.51 ± 0.61
TGTCATCATCTTAAATGTACAAAAAGGAAATATAAA [XGTACX_site1529]	8.09 ± 0.73
TTTTTATTTACACTTTTTATTTATATATTATGTACG [CACACA_negctrl_site158]	8.05 ± 0.57
TTTATATATTTCATAATACACACGAAAAAAAAAAAA [CACACA_site2970]	8.23 ± 0.86
TATTTGTAATATAACACACACAAAAAAAGACTCGGA [CACACA_site1681]	7.95 ± 0.63
TTTGTCAAATAATATTGTACTAAAAAATTTTGCCTT [XGTACX_site7485]	7.73 ± 0.37
ATACACACAGCCTAAACATGCATATAGAAAAAAGAA [TGCATGCA_site1028]	8.29 ± 0.49
TTTATTTACTATTAAAGTACTAAATCATATAATTAT [XGTACX_site2580]	7.49 ± 0.48
TGTTTATACATCAGGTGTACGCAAAATAATTGTATG [XGTACX_site206]	8.19 ± 0.16
TTAACACATGCTTGGTCACACACGTATGCATATTTA [CACACA_site2127]	8.01 ± 0.76
TATACATATACATATACACACACACCCATAAATAAA [CACACA_site8372]	8.73 ± 0.83
GTGTGATATAATTTTTTTAGAGCTTTATAATATTAT [CACACA_negctrl_site233]	8.12 ± 0.19
CAACCATTTGTAGGTAAACACACATTATTATTAATA [CACACA_site8842]	7.47 ± 0.46
TATGTTGATGATATTACACACCCAATGAGAAAAGGA [CACACA_site7060]	8.25 ± 0.52
AAGTTACAGAATATCACACATAAATTATCTGTATAT [CACACA_site5116]	7.55 ± 0.52
GTTAAGCAATATATATGTACTTATGGAATAGAAAAA [XGTACX_site3693]	8.06 ± 0.71
TCAATTAATTATTTTTGTACACAAGAATTACTGAAT [XGTACX_site6401]	7.77 ± 0.33
